Test results taken from the supplement of paper PMC10126150.
Sequences with one replicate were seen in a single cluster, so their values are uncertain.

Tested on: ATP
Test: switch fluorescence ratio, 500 uM ATP over buffer (Cy3 cluster intensity, sum of 5 cycles each) (fold (ratio)); higher = stronger signal-on switching upon ATP binding; sequences stand for … in TCGTCGGCAGCGTCAGATGTGTATAAGAGACAGTTTTTTTTTTTTTTTTTTTTTTTTT…TC
Conditions: aptamer strand: ATP DNA aptamer (quencher-CACCTGGGGGAGTATTGCGGAGGAAGG + anchor), 100 nM annealed; ATP concentration: 500 uM; one replicate
Summary of the method: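 Between each of five buffer/ATP cycles, the flow-cell was stripped with NaOH and re-annealed. Each cycle imaged Cy3-labelled switching-strand clusters, annealed to 100 nM quencher-labelled ATP aptamer on a modified Illumina MiSeq flow-cell, first in selection buffer and then after 15 min with 500 uM ATP at 22 °C. The fluorescence ratio is summed target-cycle over summed buffer-cycle Cy3 intensity per cluster, averaged per switch-domain sequence, with clusters outside 100-1000 RFU excluded.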
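Also: ATP exposure 15 min at 22 °C before imaging.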

| Sequence | switch fluorescence ratio |
| --- | --- |
| TTCAGGTTA | 0.981 |
| AAACATAGTA | 1.02 |
| TTTCAATGGG | 1.05 |
| ATCGTGAGTG | 0.969 |
| GCTTTGGGTA | 1.01 |
| GACGAGCTGC | 1.17 |
| CGATCGATGG | 1.01 |
| ATAGCTGACA | 1.05 |
| GCCTATGGTG | 1.2 |
| TTATAGGGA | 1 |
| ACGTTATAA | 1.44 |
| GGTCGTAGGT | 0.979 |
| GATTATGCAA | 1.05 |
| GAAATTACGA | 1.08 |
| CACCGTGCGC | 1.3 |
| TGGAGTCAGC | 0.989 |
| ACTTGGAG | 1.05 |
| GTCGAGGTG | 1.07 |
| CCGCTTAAAG | 1.83 |
| TACGGACGCT | 1.21 |
| GTTTTTCGTA | 0.976 |
| CAAGCGATTC | 1.82 |
| TGGCGAGGAA | 1.05 |
| GAAAGACCAA | 0.977 |
| GATTTAGGTC | 1.02 |
| GTGTCCATAT | 0.986 |

| Sequence | switch fluorescence ratio |
| --- | --- |
| TCTCAACCCT | 1.09 |
| GGACACCAGT | 1.02 |
| CTCACGAAAG | 1.05 |
| GACTCGCACC | 2.92 |
| CTCGTCGACA | 0.985 |
| TCACAGGAAA | 1.26 |
| AGTGCGTCAC | 1.02 |
| AATCCATGTT | 1.01 |
| CTTTGGACAC | 1.05 |
| ATCGACTTGT | 0.981 |
| GGCGACCGCA | 1.03 |
| TTCACGTTAG | 1.03 |
| AACCGGGCAA | 2.61 |
| GAGGGGTGAA | 0.987 |
| GATATAAGCA | 1.01 |
| GAGTGCCTGA | 1 |
| TGGAGCTACG | 1.04 |
| TCACGGGCTG | 1 |
| GGGAATTCAG | 0.988 |
| TGGCACCAGA | 1 |
| ATGCGTGGCC | 1 |
| GATCCAGACA | 0.977 |
| CCCGGCGGG | 0.979 |
| AGTAAAATCG | 0.974 |
| CAATGGCATG | 0.968 |
| TATTATCCGA | 0.959 |

| Sequence | switch fluorescence ratio |
| --- | --- |
| TGGTCTAGGC | 0.979 |
| TTAACGCCGG | 0.946 |
| GCGCATCGGG | 1.04 |
| GTTGCTATGG | 0.999 |
| TCGCGAACC | 1.09 |
| ATACGGTTAA | 1.07 |
| AAATGAATAG | 0.958 |
| CATAAGCTTC | 1.11 |
| CGAGAATGCA | 0.995 |
| TTCAGATATA | 1.01 |
| GCAGCGTGAA | 0.996 |
| AGGTCCCGCT | 0.981 |
| TCGAAGGTAG | 1.04 |
| GCGTAAGGGG | 0.969 |
| GAACCGATAT | 1.03 |
| ATCGTTGAGA | 1.01 |
| AGCGGCC | 1 |
| CTCGATGTCT | 0.997 |
| GAGATGACCC | 1.01 |
| TGGAAAGCAA | 1.4 |
| TCGGCGCCGA | 1.06 |
| CGGCTATTTA | 0.945 |
| GGTGCCCATT | 0.973 |
| CGACTTCGT | 1.04 |
| TCGCATGTT | 1.23 |
| ACTCGATTT | 0.969 |

| Sequence | switch fluorescence ratio |
| --- | --- |
| CGACTAAGGA | 1.07 |
| TGGGCCCCGT | 1.02 |
| TGGTTACACT | 0.971 |
| AGCAGGTTTT | 0.989 |
| TTGCATATGT | 0.99 |
| GTCGGGAAGA | 1.03 |
| CTGCCTTGCT | 0.988 |
| TTTCATCTCC | 1.05 |
| CAGCCCGTTC | 1.09 |
| TTACGGGCCA | 1.05 |
| AAACTCACTG | 1.18 |
| TATTCCAGCG | 1.03 |
| TGAGCACGAC | 1.33 |
| GAATGTAAGA | 0.966 |
| TGGTATGAGA | 1.01 |
| CAAAATGAGA | 0.984 |
| GGGAGGTCGT | 1.01 |
| CTTCAGTATT | 0.97 |
| CACTTGCTAT | 1.07 |
| TTAGCTTA | 1.01 |
| TCGAGTCAAG | 1.07 |
| ATGTAGCTTT | 1.03 |
| ATCGAAAGAG | 1.02 |
| TGTGGAGGCG | 1.02 |
| ATGGTTGAGT | 0.967 |
| GTGAGTCTAT | 0.998 |

| Sequence | switch fluorescence ratio |
| --- | --- |
| AATTCGGTTG | 1 |
| TTCGTTCATT | 1.02 |
| TAGTAATAGT | 1.08 |
| AGCTTTCTGT | 0.977 |
| ACTCATATGC | 1.25 |
| GGAAGGGCTC | 1.01 |
| GGTCCTAGGC | 1.06 |
| AATGTCTCCG | 1.09 |
| GGCCCGTGTT | 1.03 |
| GACACTGTGT | 1.01 |
| TTCGTAAATA | 1.14 |
| GCTAATGTGG | 1.01 |
| CGTCTACTCT | 0.978 |
| GCTAGCTTTA | 1 |
| CGAGCACCAC | 2.17 |
| ACGAAGTGGT | 1.02 |
| AGAATCGGTA | 1.03 |
| GTAGGTGATA | 1.03 |
| ATCGTAAGAT | 0.988 |
| ACCTTAGCAG | 1.02 |
| ATTATCGCC | 1.06 |
| AGGAGGTCAC | 0.988 |
| CAGGGGACTG | 1.11 |
| CGTCGTCACC | 1.07 |
| CGAATTAGGA | 0.949 |
| CTAGGTTCCG | 1.05 |

| Sequence | switch fluorescence ratio |
| --- | --- |
| AGCTATGGAA | 0.99 |
| TGCTCTGAAA | 1.34 |
| CGTTTGAGCC | 0.992 |
| TTGTGCCAAA | 0.985 |
| GGAGTAATTC | 2.3 |
| GCTTGTACTT | 1.02 |
| CCGTTGGTCC | 1.09 |
| GCCTGTCAGC | 0.982 |
| CTCACTTTGC | 1.08 |
| AGTGGGGAAG | 0.929 |
| GGAGTTGGCA | 1.03 |
| GGTTTTCATG | 1.01 |
| GAACGAGAAC | 1.06 |
| AGCCCATCC | 1.03 |
| GGGTGTCGCG | 1 |
| GGGCTTGACG | 1.02 |
| AGGGGACCAT | 0.975 |
| CGTACAAGAT | 1.1 |
| TAAACGAAGA | 1.05 |
| TAATATTTGG | 0.997 |
| ATCTGGTTCG | 0.959 |
| CATCCGTGTA | 3.49 |
| TATCACCCAT | 1.01 |
| TCGTGAGGAA | 1 |
| GATTAGTACG | 0.986 |
| AACGAGCGCT | 0.973 |

| Sequence | switch fluorescence ratio |
| --- | --- |
| TAAACAAGTT | 1.08 |
| CGGACAACGG | 1.07 |
| TAGTATCTA | 1 |
| TAGAATCTTG | 1.06 |
| CGCATCTGAT | 0.983 |
| ATTGGACGGA | 1.02 |
| TTTAATCCGG | 1.01 |
| CAGAGACTCG | 0.972 |
| GATCCACCTG | 1.04 |
| AGCCAACCCC | 1.2 |
| CGGTTAAGTT | 1.01 |
| CATGCATACG | 1.09 |
| ATATAGGATG | 0.954 |
| TTGAAGTGAT | 1.59 |
| TCAGTCATGG | 1.08 |
| GCCAGAAATG | 0.989 |
| GACGGTCGGA | 1.05 |
| AAATGATTC | 0.99 |
| GCGTGTTGCT | 1 |
| TATGTAAAGG | 0.998 |
| CGTACCTGTT | 0.993 |
| AGAAGAATAT | 0.997 |
| CTTGTTAGAG | 0.935 |
| TTGAATAAAC | 0.967 |
| CTACCTCATG | 1.11 |
| TCCAAGGACC | 1.03 |

| Sequence | switch fluorescence ratio |
| --- | --- |
| GGTCGAGCTC | 0.969 |
| GTGATATACT | 1.03 |
| TTAGATGCCT | 1.11 |
| TAACTTGGGT | 1.02 |
| TTAAATCTAA | 0.938 |
| GCATGCCGAG | 0.969 |
| TTCTTCAACT | 1.03 |
| TCCCGGGAGG | 1.01 |
| TGCGTATCGG | 0.97 |
| GTTGCGACTG | 1.02 |
| CAACTTCAGG | 1.01 |
| ACCGGGAGAG | 1.02 |
| ATAACGCGAA | 1.16 |
| CGGGAGACTT | 1.01 |
| ACGGGTCGCC | 0.979 |
| CCAACTTCTT | 0.975 |
| TCATGGGTAC | 1.03 |
| GCGTAAATA | 1.01 |
| AGTAGCTTCT | 1.02 |
